# Laboratory results: the supplement of paper PMC8728848
# This is one part of the list.
# Tests used:
# Assay in all cases: glycan array binding signal (z-score within array); higher = stronger binding
# Settings in all cases: glycan notation: IUPAC condensed, linker removed
# [1] = target: GalNAc(b1-3)Gal
# How it was run: (§1)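 Glycan array data were curated from 3228 arrays in the Consortium for Functional Glycomics database and kept only where the protein sequence was available. Glycan names were converted to IUPAC-condensed notation, and columns mapping to the same glycan were averaged. The binding signal is a within-array Z-score, averaged across arrays of the same protein sequence at different concentrations or buffers and across linkers. Negative Z-scores can be read as non-binding.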
# [2] = target: GalNAc(b1-3)Gal(a1-4)Gal(b1-4)GlcNAc
# How it was run: as §1
# [3] = target: GalNAc(b1-3)Gal(a1-4)Gal(b1-4)GlcNAc(b1-3)Gal(b1-4)Glc
# How it was run: as §1
# [4] = target: GalNAc(b1-3)Gal(a1-6)Gal(b1-4)Glc
# How it was run: as §1
# [5] = target: GalNAc(b1-3)GalNAc
# How it was run: as §1
# [6] = target: GalNAc(b1-3)GlcNAc
# How it was run: as §1
# [7] = target: GalNAc(b1-4)Gal(b1-4)Glc
# How it was run: as §1
# [8] = target: GalNAc(b1-4)GlcNAc
# How it was run: as §1
# [9] = target: GalNAc(b1-4)GlcNAc(b1-2)Man
# How it was run: as §1
# [10] = target: GalNAc(b1-4)GlcNAc(b1-2)Man(a1-3)[GalNAc(b1-4)GlcNAc(b1-2)Man(a1-6)]Man(b1-4)GlcNAc(b1-4)GlcNAc
# How it was run: as §1
# [11] = target: GalNAc(b1-4)GlcNAc(b1-3)GalNAc(b1-4)GlcNAc
# How it was run: as §1
# [12] = target: GalNAc(b1-4)GlcNAc6S
# How it was run: as §1
# [13] = target: GalNAc(b1-6)GalNAc
# How it was run: as §1
# [14] = target: GalNAc3S(b1-4)GlcNAc
# How it was run: as §1
# [15] = target: GalNAc3S(b1-4)GlcNAc3S
# How it was run: as §1
# [16] = target: GalNAc3S(b1-4)[Fuc(a1-3)]GlcNAc
# How it was run: as §1
# [17] = target: GalNAc4S6S(b1-4)GlcNAc
# How it was run: as §1
# [18] = target: GalNAc6S(b1-4)GlcNAc
# How it was run: as §1
# [19] = target: Glc(a1-4)Glc
# How it was run: as §1
# [20] = target: Glc(a1-4)Glc(a1-4)Glc(a1-4)Glc
# How it was run: as §1
# [21] = target: Glc(a1-6)Glc(a1-6)Glc
# How it was run: as §1
# [22] = target: Glc(a1-6)Glc(a1-6)Glc(a1-6)Glc
# How it was run: as §1
# [23] = target: Glc(b1-4)Glc
# How it was run: as §1
# [24] = target: Glc(b1-6)Glc
# How it was run: as §1
# [25] = target: GlcA(b1-3)Gal
# How it was run: as §1
# [26] = target: GlcA(b1-3)GlcNAc
# How it was run: as §1
# [27] = target: GlcA(b1-6)Gal
# How it was run: as §1
# [28] = target: GlcA3S(b1-3)Gal(b1-4)GlcNAc(b1-2)Man
# How it was run: as §1
# [29] = target: GlcA3S(b1-3)Gal(b1-4)GlcNAc(b1-3)Gal(b1-4)Glc
# How it was run: as §1
# [30] = target: GlcNAc(a1-3)Gal(b1-4)GlcNAc
# How it was run: as §1
# [31] = target: GlcNAc(a1-4)Gal(b1-3)GlcNAc
# How it was run: as §1
# [32] = target: GlcNAc(a1-4)Gal(b1-4)GalNAc
# How it was run: as §1
# [33] = target: GlcNAc(a1-4)Gal(b1-4)GlcNAc
# How it was run: as §1
# [34] = target: GlcNAc(a1-4)Gal(b1-4)GlcNAc(b1-3)Gal(b1-4)Glc
# How it was run: as §1
# [35] = target: GlcNAc(a1-4)Gal(b1-4)GlcNAc(b1-3)Gal(b1-4)GlcNAc
# How it was run: as §1
# [36] = target: GlcNAc(a1-4)Gal(b1-4)GlcNAc(b1-3)Gal(b1-4)GlcNAc(b1-3)Gal(b1-4)GlcNAc
# How it was run: as §1
# [37] = target: GlcNAc(a1-4)Gal(b1-4)GlcNAc(b1-3)Gal(b1-4)[Fuc(a1-3)]GlcNAc(b1-3)Gal(b1-4)[Fuc(a1-3)]GlcNAc
# How it was run: as §1
# [38] = target: GlcNAc(a1-6)Gal(b1-4)GlcNAc
# How it was run: as §1
binder,measurement,setting,value
PX9961U-pdi-543-24-543 (Parabacteroides distasonis) (protein) EEPVGEFLPGQVESEENIEGIVTGAYAVLDGYYASDAINSGCSNWQFGDVVSDDAYKGGGGTGDQNQIHLMEIFNANPTGIDFEARWAALYEGIKRCNQAIRLLNGSEVKNKEQRLAEMRFLRGHYYFNLKIIYNQIPWIDETLVDPNEYNKKSNIEFSSDQLWEKILEEFSAAYKVLPESQADYGRPTKMAARAYMAKVYLYQSKWKECLEACDEVIQSGKYELFPDFRNVFLPENDNCSEIIFAIQLSINDGSPNNENGSYGDRLLPPGGPYPVYGFLRPTQNLVNAYKTDVKGLPYNDGKDVSENDYVDVRLDHTLARPNIPFMDVQLYDWTPREASVYGPYSPKKRLVSLNSTYYSPIWPYVNALNFYVIRYADLLLWRAEAAIETGDLETGRKYINMIRERAKNTQHVKTMDQSQDAANYKVGVYDEPFKSKNEAVQALRMERRLEMAHEGIRFFDLVRWGVADEVINAYIAKEKVFRSHLQNAHFVKGKHEYFPIPQSMIDICGTEVMKQNPGY,glycan array binding signal (z-score),[1],-0.489
same,glycan array binding signal (z-score),[2],0.664
same,glycan array binding signal (z-score),[3],0.108
same,glycan array binding signal (z-score),[4],-0.274
same,glycan array binding signal (z-score),[5],-0.426
same,glycan array binding signal (z-score),[6],-0.405
same,glycan array binding signal (z-score),[7],-0.303
same,glycan array binding signal (z-score),[8],0.049
same,glycan array binding signal (z-score),[9],-0.203
same,glycan array binding signal (z-score),[10],-0.253
same,glycan array binding signal (z-score),[11],0.352
same,glycan array binding signal (z-score),[12],-0.343
same,glycan array binding signal (z-score),[13],-0.394
same,glycan array binding signal (z-score),[14],-0.449
same,glycan array binding signal (z-score),[15],-0.323
same,glycan array binding signal (z-score),[16],-0.27
same,glycan array binding signal (z-score),[17],-0.413
same,glycan array binding signal (z-score),[18],-0.414
same,glycan array binding signal (z-score),[19],-0.329
same,glycan array binding signal (z-score),[20],-0.168
same,glycan array binding signal (z-score),[21],-0.457
same,glycan array binding signal (z-score),[22],-0.362
same,glycan array binding signal (z-score),[23],-0.407
same,glycan array binding signal (z-score),[24],-0.334
same,glycan array binding signal (z-score),[25],-0.393
same,glycan array binding signal (z-score),[26],-0.535
same,glycan array binding signal (z-score),[27],0.656
same,glycan array binding signal (z-score),[28],-0.428
same,glycan array binding signal (z-score),[29],-0.414
same,glycan array binding signal (z-score),[30],-0.303
same,glycan array binding signal (z-score),[31],-0.408
same,glycan array binding signal (z-score),[32],-0.384
same,glycan array binding signal (z-score),[33],-0.445
same,glycan array binding signal (z-score),[34],-0.313
same,glycan array binding signal (z-score),[35],-0.342
same,glycan array binding signal (z-score),[36],-0.46
same,glycan array binding signal (z-score),[37],1.56
same,glycan array binding signal (z-score),[38],0.541
